According to publication PMC4336329 (PLoS ONE, 2015):
The whole screen tested about 310,000 compounds, of which about 14,000 (4.5%) showed an effect of 50% or more. The effect is printed as a negative number. This is one part of the list.

These compounds were tested against human ether-à-go-go-related gene (hERG) potassium channel (human, UniProt Q12809) (assay: primary screen, population patch clamp on CHO cells stably expressing hERG).
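Also: peak tail current of the secondary pulse compared with the same well before compound.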

Chain of human ether-à-go-go-related gene (hERG) potassium channel (Q12809 whole entry, looked up): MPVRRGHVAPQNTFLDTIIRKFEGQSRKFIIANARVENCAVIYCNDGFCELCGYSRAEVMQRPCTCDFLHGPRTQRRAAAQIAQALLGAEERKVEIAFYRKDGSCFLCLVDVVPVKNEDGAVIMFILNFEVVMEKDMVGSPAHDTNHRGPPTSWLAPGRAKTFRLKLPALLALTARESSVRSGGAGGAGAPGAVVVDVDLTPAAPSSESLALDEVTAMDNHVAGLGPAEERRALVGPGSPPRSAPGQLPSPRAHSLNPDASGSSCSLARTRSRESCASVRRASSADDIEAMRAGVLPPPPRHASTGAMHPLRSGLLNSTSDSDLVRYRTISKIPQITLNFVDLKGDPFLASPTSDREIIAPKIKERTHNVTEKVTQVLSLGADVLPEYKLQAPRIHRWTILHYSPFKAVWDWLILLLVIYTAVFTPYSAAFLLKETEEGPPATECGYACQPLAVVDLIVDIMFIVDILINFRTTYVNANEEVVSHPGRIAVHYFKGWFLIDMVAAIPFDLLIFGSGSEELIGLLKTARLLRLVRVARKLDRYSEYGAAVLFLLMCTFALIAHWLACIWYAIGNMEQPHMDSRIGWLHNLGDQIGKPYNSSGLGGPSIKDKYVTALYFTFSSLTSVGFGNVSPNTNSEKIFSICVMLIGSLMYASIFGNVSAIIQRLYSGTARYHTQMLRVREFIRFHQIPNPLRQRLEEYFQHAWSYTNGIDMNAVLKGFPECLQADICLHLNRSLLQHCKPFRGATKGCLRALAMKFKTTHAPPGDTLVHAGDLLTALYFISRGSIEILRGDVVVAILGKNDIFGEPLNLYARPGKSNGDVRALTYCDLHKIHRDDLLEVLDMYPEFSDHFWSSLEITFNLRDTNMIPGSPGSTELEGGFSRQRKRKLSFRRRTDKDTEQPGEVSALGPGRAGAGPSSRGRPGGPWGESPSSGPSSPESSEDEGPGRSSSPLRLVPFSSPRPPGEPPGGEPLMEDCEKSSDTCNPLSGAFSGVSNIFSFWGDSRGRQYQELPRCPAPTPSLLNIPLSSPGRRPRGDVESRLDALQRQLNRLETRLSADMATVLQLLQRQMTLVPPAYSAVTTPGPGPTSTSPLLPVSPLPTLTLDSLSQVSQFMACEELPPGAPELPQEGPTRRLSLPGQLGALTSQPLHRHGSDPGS

| Structure (SMILES) | hERG current change (%, negative = inhibition) at 10uM [%] |
| --- | --- |
| CCCCn1c(SCC(=O)NCc2ccc(OC)c(C(=O)O)c2)nc2cc(S(N)(=O)=O)ccc21 | 25.8 |
| O/N=C(\c1ccc(Cl)cc1)c1ncc(C(F)(F)F)cc1Cl | 5.85 |
| CCc1ccc(CNCCc2ccccc2F)cc1 | -67.7 |
| O=[N+]([O-])c1ccc(N2CCN(c3cccc(Cl)c3)CC2)cn1 | -63.2 |
| CCc1ccc(NC(=O)C(C)OC(=O)c2cc(=O)[nH]c3ccc(S(=O)(=O)Nc4ccc(F)cc4)cc23)cc1 (centres unmarked) | 10.4 |
| CCOC(=O)CSc1nnc(-c2c[nH]c3ccccc23)o1 | 6.78 |
| Cc1cc(OC(=O)c2ccccc2C(F)(F)F)c([N+](=O)[O-])c(=O)[nH]1 | 3.81 |
| Cn1c(N)c(C(=O)COC(=O)c2ccc(Cl)nc2)c(=O)n(C)c1=O | 0.356 |
| CCOc1cccc(C2CC(=O)Nc3cc(OC)c(OC)cc32)c1 (centres unmarked) | -5.69 |
| Cc1cc(-c2ccc(S(=O)(=O)N3CCN(c4cccc(C)c4C)CC3)s2)on1 | -26.7 |
| COc1ccc(S(=O)(=O)N2CCC(Cc3ccccc3)CC2)cc1NC(C)=O | 20.5 |
| O=C(NCCc1ccncc1)Nc1ccccc1 | -4.94 |
| CCc1ccccc1OCC(=O)Nc1ccc(C)c(S(=O)(=O)N2CCCCCC2)c1 | -11 |
| Cc1ccc(CNC(=O)c2cncc(Br)c2)cc1 | 6.72 |
| CCc1nnc(NC(=O)Cc2ccc(OCc3c(C)noc3C)cc2)s1 | 2.89 |
| CC(=O)NS(=O)(=O)c1ccc(NC(=S)NC(=O)C(C)(C)C)cc1 | -10.6 |
| CCC(Sc1nnnn1-c1ccccc1)C(=O)NC(C)c1ccccc1 (centres unmarked) | -17.9 |
| CC1(c2nnc(-c3ccccc3)o2)CC(c2ccc([N+](=O)[O-])cc2)=NO1 (centres unmarked) | 4.53 |
| COC(=O)c1c(-c2c(Cl)cccc2Cl)noc1NC(=O)NN1CCOCC1 | -10.3 |
| O=c1c2cnn(-c3ccccc3)c2nnn1Cc1ccccn1 | -21.9 |
| CCCC(=O)NC(=S)Nc1ccc(N2CCOCC2)c(Cl)c1 | -13.4 |
| CC(=O)/C(C#N)=C1\NC(=O)C(Cc2ccccc2Cl)S1 (centres unmarked) | 2.38 |

| Structure (SMILES) | hERG current change (%, negative = inhibition) at 10uM [%] |
| --- | --- |
| Cn1cccc1C1C(C#N)=C(N)OC2=C1C(=O)CC(C)(C)C2 (centres unmarked) | -1.67 |
| O=C(Cc1ccc(Cl)c(Cl)c1)Nc1cccc2ncccc12 | 20.2 |
| O=C(CCN1CCN(Cc2ccccc2)CC1)Nc1cccc(Cl)c1 | -70.6 |
| O=C(NCCS(=O)(=O)N1CCN(c2ccccc2)CC1)c1ccc2c(c1)OCO2 | -3.59 |
| O=C(Cc1n[nH]c(=O)c2ccccc12)OCC(=O)c1ccc(OC(F)F)cc1OC(F)F | -8.78 |
| S=C(NCc1ccccc1)NCc1ccco1 | 8.29 |
| COc1ccc(S(=O)(=O)N2CCCCC2)cc1NC(=O)c1ccccc1 | 13.7 |
| COc1cc(NC(=O)c2ccc(C)cc2)c(OC)cc1NC(=O)CN1CCCCC1 | -15.1 |
| COCCCN1C(=O)c2ccc(C(=O)NCc3ccccn3)cc2C1=O | -1.71 |
| Cc1ccc2[nH]c(C)c(/C=N/Nc3nc4ccccc4s3)c2c1 | 0.648 |
| O=C(NCc1cccnc1)C(=O)Nc1nccs1 | 22 |
| COc1cc(OC)cc(C(=O)NNC(=O)CCC(=O)c2cccs2)c1 | 17.6 |
| COc1cc(CC(=O)OCC(=O)Nc2ccc3c(c2)OCO3)cc(OC)c1OC | 5.01 |
| O=C(NCCCN1CCOCC1)c1c(F)c(F)c(F)c(F)c1F | 20.7 |
| O=C(OCc1ccc(COC(=O)c2ccc(O)cc2)cc1)c1ccc(O)cc1 | 9.09 |
| COc1cc([N+](=O)[O-])ccc1NC(=S)N1CCN(c2ccccn2)CC1 | -39.4 |
| CCSC1(SCC)N=C(N)C2(C#N)C(c3ccccc3)NC3=C(CCC3)C12C#N (centres unmarked) | 13 |
| O=C(CNC(=O)c1ccc(Br)cc1)N=Nc1c(O)[nH]c2ccc([N+](=O)[O-])cc12 | 9.35 |
| Cn1c(CSCc2ccc(Cl)cc2Cl)n[nH]c1=S | 7.37 |
| COc1ccccc1Nc1cc(C(=O)N2CCc3ccccc3C2)c2ccccc2n1 | -12.4 |
| CCOC(=O)C1CCCN(Cc2cc(OC)c(O)c(OC)c2)C1 (centres unmarked) | -2.31 |
| COc1ccc(S(=O)(=O)N(C)CC(=O)Nc2ccc(C(F)(F)F)cc2)cc1Cl | 17.1 |
